Binding data for three molecules are collected here from PMC5145805, “Structural Basis for Selective Interaction between the ESCRT Regulator HD-PTP and UBAP1” (Structure(London, England:1993), 2016).

Amino acid sequences for entries named in this document (tags omitted). Residues count along the entry.
UniProt Q8WUM4, residues 358-702: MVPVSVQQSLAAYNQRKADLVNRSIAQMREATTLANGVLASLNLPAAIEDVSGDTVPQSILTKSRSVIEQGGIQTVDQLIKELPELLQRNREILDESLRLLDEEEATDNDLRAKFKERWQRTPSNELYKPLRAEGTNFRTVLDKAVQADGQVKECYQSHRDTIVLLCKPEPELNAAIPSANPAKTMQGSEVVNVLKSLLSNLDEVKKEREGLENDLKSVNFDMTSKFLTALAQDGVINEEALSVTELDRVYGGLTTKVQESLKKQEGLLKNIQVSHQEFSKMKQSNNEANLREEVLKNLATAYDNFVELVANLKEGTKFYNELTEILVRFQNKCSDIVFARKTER

No constants are given. Whether binding was seen depends on the method and setting. For part of these data: In cells and extracts the contact can be indirect. Some binding calls cover weakened binding; strength is not graded here. For part of these data: Tags and fused reporters may be left off the sequences shown.

Assay [1] addresses T1, HD-PTP_(Bro1-CC) (residues 1-714), His6-tagged (UniProt Q9H3S7).
T1 sequence: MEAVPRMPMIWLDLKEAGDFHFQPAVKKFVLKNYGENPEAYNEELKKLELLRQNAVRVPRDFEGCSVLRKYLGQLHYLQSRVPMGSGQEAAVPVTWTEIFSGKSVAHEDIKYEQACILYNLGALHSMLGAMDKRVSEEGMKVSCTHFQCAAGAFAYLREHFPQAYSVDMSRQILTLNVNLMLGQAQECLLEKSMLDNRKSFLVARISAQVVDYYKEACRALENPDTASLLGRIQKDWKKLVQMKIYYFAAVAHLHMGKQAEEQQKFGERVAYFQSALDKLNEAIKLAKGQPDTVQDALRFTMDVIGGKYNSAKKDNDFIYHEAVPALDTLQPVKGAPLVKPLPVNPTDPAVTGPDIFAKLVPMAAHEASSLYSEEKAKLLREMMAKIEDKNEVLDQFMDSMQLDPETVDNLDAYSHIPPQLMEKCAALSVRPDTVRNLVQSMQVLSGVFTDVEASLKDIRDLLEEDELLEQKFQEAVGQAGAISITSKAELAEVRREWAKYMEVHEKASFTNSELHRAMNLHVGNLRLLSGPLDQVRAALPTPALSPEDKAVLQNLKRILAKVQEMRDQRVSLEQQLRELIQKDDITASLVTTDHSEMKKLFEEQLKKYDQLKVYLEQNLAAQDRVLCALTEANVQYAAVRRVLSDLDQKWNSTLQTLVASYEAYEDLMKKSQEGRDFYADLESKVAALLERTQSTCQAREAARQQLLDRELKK
The experiment in a line: co-IP; 20 uL in vitro translated 35S-UBAP1-strep with 5 ug His6-HD-PTP_(Bro1-CC) in 20 mM HEPES pH 7.4, 100 mM NaCl, 1 mM MgCl2, 1% Triton X-100, 4 C; anti-His antibody and protein A-Sepharose; only the target purified.

For assay [2], the target named is T2, HD-PTPCC (coiled-coil domain of HD-PTP, residues 363-712) (UniProt Q9H3S7).
T2 sequence: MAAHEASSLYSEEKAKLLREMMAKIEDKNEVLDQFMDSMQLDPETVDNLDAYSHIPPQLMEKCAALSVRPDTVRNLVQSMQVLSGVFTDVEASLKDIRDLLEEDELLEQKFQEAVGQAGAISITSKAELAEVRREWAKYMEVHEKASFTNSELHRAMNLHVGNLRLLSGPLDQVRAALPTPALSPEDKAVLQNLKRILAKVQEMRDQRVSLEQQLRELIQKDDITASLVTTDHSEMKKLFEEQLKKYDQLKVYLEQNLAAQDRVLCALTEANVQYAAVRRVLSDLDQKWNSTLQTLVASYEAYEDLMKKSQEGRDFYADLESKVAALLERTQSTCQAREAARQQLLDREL
The experiment in a line: SPR; ProteOn XPR36; HD-PTP constructs (50-100 ug/mL) immobilised on an HTE chip, peptides injected (50 uL at 100 uL/min); 25 C; 10 mM HEPES pH 7.4, 150 mM NaCl, 0.05% Tween 20; equilibrium binding model; both purified. Background: Surface plasmon resonance follows binding to a sensor surface in real time, without labels.

In assay [3] the target is T1, HD-PTP_(Bro1-CC) (residues 1-714), His6-tagged. The assay is described as above.
The target in assay [4] is T3, HD-PTPCC (residues 363-712), His6 tag removed, as crystallised (UniProt Q9H3S7).
T3 sequence: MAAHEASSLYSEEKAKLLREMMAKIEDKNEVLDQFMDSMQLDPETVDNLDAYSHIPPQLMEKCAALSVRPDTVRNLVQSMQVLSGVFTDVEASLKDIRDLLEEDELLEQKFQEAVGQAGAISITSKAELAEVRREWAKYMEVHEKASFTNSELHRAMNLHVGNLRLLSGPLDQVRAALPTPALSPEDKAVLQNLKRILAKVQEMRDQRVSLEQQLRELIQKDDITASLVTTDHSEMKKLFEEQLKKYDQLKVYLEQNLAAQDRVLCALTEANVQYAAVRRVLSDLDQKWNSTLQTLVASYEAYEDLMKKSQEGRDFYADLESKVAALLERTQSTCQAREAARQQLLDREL
The experiment in a line: crystal structure; HD-PTPCC (1 mg/mL, His6 removed) mixed with 1 mM UBAP1 peptide, concentrated to 11 mg/mL; 0.2 M KSCN, 20% PEG3350; 2.55 A; both purified.

Assay [5] addresses T2, HD-PTPCC (coiled-coil domain of HD-PTP, residues 363-712). The experiment in a line: NMR titration; 1H-13C HSQC of UBAP1C (1 mg/mL, ~0.5 mM, natural abundance 13C) in PBS in D2O pD 7.5, without and with 60 uM HD-PTPCC; 800 MHz; both purified.
Assay [6] has as its target AlixV (V domain of Alix, residues 358-702) (UniProt Q8WUM4). The experiment in a line: SPR; Figure 7B; the legend does not name the method and the text says 'in solution'; taken as the biosensor set-up of the methods (protein immobilised, peptide injected); both purified.
Another assay has as its target T4, HD-PTPCC F678D (UniProt Q9H3S7).
T4 sequence: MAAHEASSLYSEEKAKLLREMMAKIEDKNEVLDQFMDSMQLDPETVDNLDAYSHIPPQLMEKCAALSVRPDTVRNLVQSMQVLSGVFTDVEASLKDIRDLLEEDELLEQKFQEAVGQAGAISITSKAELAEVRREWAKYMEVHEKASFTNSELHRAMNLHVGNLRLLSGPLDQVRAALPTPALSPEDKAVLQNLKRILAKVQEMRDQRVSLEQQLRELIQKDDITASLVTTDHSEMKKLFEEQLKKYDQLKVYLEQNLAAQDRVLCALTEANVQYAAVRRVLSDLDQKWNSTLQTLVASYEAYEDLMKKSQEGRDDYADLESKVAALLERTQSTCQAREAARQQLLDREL
The experiment in a line: SPR; ProteOn XPR36; HD-PTP constructs (50-100 ug/mL) immobilised on an HTE chip, peptides injected (50 uL at 100 uL/min); 25 C; 10 mM HEPES pH 7.4, 150 mM NaCl, 0.05% Tween 20; equilibrium binding model; both purified.

The target of assay [7] is T5, HD-PTP_(Bro1) (residues 1-361) (UniProt Q9H3S7).
T5 sequence: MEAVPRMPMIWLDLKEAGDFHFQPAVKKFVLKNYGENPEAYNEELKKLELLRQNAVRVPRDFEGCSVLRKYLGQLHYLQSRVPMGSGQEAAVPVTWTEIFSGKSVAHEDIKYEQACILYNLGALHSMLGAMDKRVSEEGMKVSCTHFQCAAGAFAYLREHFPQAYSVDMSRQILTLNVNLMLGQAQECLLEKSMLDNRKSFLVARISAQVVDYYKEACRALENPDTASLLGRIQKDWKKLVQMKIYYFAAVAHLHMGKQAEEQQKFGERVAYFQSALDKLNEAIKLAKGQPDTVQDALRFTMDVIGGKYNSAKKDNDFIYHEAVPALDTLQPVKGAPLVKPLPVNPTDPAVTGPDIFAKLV
The assay is described as above.

Assay [8] has as its target T6, MTSL-labeled HD-PTPCC C697S mutant (UniProt Q9H3S7).
T6 sequence (chain, MTSL (methanethiosulfonate spin label) on C425 and C628): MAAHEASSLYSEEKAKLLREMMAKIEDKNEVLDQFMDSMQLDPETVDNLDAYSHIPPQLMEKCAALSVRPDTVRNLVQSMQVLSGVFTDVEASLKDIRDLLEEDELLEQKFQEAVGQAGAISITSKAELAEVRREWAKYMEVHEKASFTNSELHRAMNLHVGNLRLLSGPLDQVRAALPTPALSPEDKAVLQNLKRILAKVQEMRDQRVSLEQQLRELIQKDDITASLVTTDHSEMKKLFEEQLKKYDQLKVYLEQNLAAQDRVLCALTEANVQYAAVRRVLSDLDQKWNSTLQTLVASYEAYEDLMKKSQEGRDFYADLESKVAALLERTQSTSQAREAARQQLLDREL
The experiment in a line: NMR paramagnetic relaxation enhancement (PRE); 1H-13C HSQC of UBAP1C with MTSL-labeled HD-PTPCC C697S, oxidised against reduced with 10-fold excess sodium ascorbate; same conditions as the HSQC experiment; both purified.

B1: UBAP1-strep, full-length, in vitro translated (protein, UniProt Q9NZ09 1-502)
chain: MASKKLGADFHGTFSYLDDVPFKTGDKFKTPAKVGLPIGFSLPDCLQVVREVQYDFSLEKKTIEWAEEIKKIEEAEREAECKIAEAEAKVNSKSGPEGDSKMSFSKTHSTATMPPPINPILASLQHNSILTPTRVSSSATKQKVLSPPHIKADFNLADFECEEDPFDNLELKTIDEKEELRNILVGTTGPIMAQLLDNNLPRGGSGSVLQDEEVLASLERATLDFKPLHKPNGFITLPQLGNCEKMSLSSKVSLPPIPAVSNIKSLSFPKLDSDDSNQKTAKLASTFHSTSCLRNGTFQNSLKPSTQSSASELNGHHTLGLSALNLDSGTEMPALTSSQMPSLSVLSVCTEESSPPNTGPTVTPPNFSVSQVPNMPSCPQAYSELQMLSPSERQCVETVVNMGYSYECVLRAMKKKGENIEQILDYLFAHGQLCEKGFDPLLVEEALEMHQCSEEKMMEFLQLMSKFKEMGFELKDIKEVLLLHNNDQDNALEDLMARAGAS
modifications: 35S-methionine labelled
B1: the binding entry in assay [1] is “binds”.

B2: UBAP1C peptide containing the F268S substitution (peptide, UniProt Q9NZ09 261-280)
peptide: SNIKSLSSPKLDSDDSNQKT
Turning to B2, the binding result in assay [2] and in assay [3] was “no binding” in each case.

B3: UBAP1C (UBAP1 peptide containing residues 261-280) (peptide, UniProt Q9NZ09 261-280, looked up)
peptide: SNIKSLSFPKLDSDDSNQKT
notes: also called UBAP1C peptide
For B3, the binding result in assay [4] is “binds”; in [5] it was “binds”; in assay [6], “no binding”; with HD-PTPCC F678D, “no binding”; in assay [7], “no binding”; in assay [8], “binds”.
